Laboratory results as given in the supplement of paper PMC12230231.

Tested on: SIVsab (simian immunodeficiency virus of sabaeus monkeys), single-cycle GFP reporter, in CRFK cells
Assay: enrichment among uninfected cells over input (fold); higher = stronger restriction
Settings: library: human / rhesus combinations
Method: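 Pools of CRFK cells expressing variants of the TRIM5α v1 loop were challenged with the single-cycle reporter, sorted by GFP and sequenced; mean of two replicates.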

Sequence | enrichment
MASGILVNVKEEVTCPICLELLTQPLSLDCGHSFCQACLTANHKKSMLDKGESSCPVCRISYQPENIRPNRHVANIVEKLREVKLSPEGQKVDHCARHGEKLLLFCQEDGKVICWLCERSQEHRGHHTFLTEEVAREYQVKLQAALEMLRQKQQEAEELEADIREEKASWKTQIQYDKTNVLADFEQLRDILDWEESNELQNLEKEEEDILKSLTNSETEMVQQTQSLRELISDLEHRLQGSVMELLQGVDGVIKRTENVTLKKPETFPKNQRRVFRAPDLKGMLEVFRELTDVRRYWVDVTVAPNNISCAVISEDKRQVSSPKPQIIYQARGTLYTFQTFVNFNYCTGILGSQSITSGKHYWEVDVSKKTAWILGVCAGFQPDAMCNIEKNENYQPKYGYWVIGLEEGVKCSAFQDSSFHTPSVPFIVPLSVIICPDRVGVFLDYEACTVSFFNITNHGFLIYKFSHCSFSQPVFPYLNPRKCGVPMTLCSPSS [human TRIM5α, 330-340 = QARGTLYTFQTFV] | 0.0548 ± 0.022
MASGILVNVKEEVTCPICLELLTQPLSLDCGHSFCQACLTANHKKSMLDKGESSCPVCRISYQPENIRPNRHVANIVEKLREVKLSPEGQKVDHCARHGEKLLLFCQEDGKVICWLCERSQEHRGHHTFLTEEVAREYQVKLQAALEMLRQKQQEAEELEADIREEKASWKTQIQYDKTNVLADFEQLRDILDWEESNELQNLEKEEEDILKSLTNSETEMVQQTQSLRELISDLEHRLQGSVMELLQGVDGVIKRTENVTLKKPETFPKNQRRVFRAPDLKGMLEVFRELTDVRRYWVDVTVAPNNISCAVISEDKRQVSSPKPQIIYQARGTRYTFPSFVNFNYCTGILGSQSITSGKHYWEVDVSKKTAWILGVCAGFQPDAMCNIEKNENYQPKYGYWVIGLEEGVKCSAFQDSSFHTPSVPFIVPLSVIICPDRVGVFLDYEACTVSFFNITNHGFLIYKFSHCSFSQPVFPYLNPRKCGVPMTLCSPSS [human TRIM5α, 330-340 = QARGTRYTFPSFV] | 0.129 ± 0.07
MASGILVNVKEEVTCPICLELLTQPLSLDCGHSFCQACLTANHKKSMLDKGESSCPVCRISYQPENIRPNRHVANIVEKLREVKLSPEGQKVDHCARHGEKLLLFCQEDGKVICWLCERSQEHRGHHTFLTEEVAREYQVKLQAALEMLRQKQQEAEELEADIREEKASWKTQIQYDKTNVLADFEQLRDILDWEESNELQNLEKEEEDILKSLTNSETEMVQQTQSLRELISDLEHRLQGSVMELLQGVDGVIKRTENVTLKKPETFPKNQRRVFRAPDLKGMLEVFRELTDVRRYWVDVTVAPNNISCAVISEDKRQVSSPKPQIIYGAPGTLFTFPTFVNFNYCTGILGSQSITSGKHYWEVDVSKKTAWILGVCAGFQPDAMCNIEKNENYQPKYGYWVIGLEEGVKCSAFQDSSFHTPSVPFIVPLSVIICPDRVGVFLDYEACTVSFFNITNHGFLIYKFSHCSFSQPVFPYLNPRKCGVPMTLCSPSS [human TRIM5α, 330-340 = GAPGTLFTFPTFV] | 1.95 ± 0.23
MASGILVNVKEEVTCPICLELLTQPLSLDCGHSFCQACLTANHKKSMLDKGESSCPVCRISYQPENIRPNRHVANIVEKLREVKLSPEGQKVDHCARHGEKLLLFCQEDGKVICWLCERSQEHRGHHTFLTEEVAREYQVKLQAALEMLRQKQQEAEELEADIREEKASWKTQIQYDKTNVLADFEQLRDILDWEESNELQNLEKEEEDILKSLTNSETEMVQQTQSLRELISDLEHRLQGSVMELLQGVDGVIKRTENVTLKKPETFPKNQRRVFRAPDLKGMLEVFRELTDVRRYWVDVTVAPNNISCAVISEDKRQVSSPKPQIIYGAPGTRFTFPSLTNFNYCTGILGSQSITSGKHYWEVDVSKKTAWILGVCAGFQPDAMCNIEKNENYQPKYGYWVIGLEEGVKCSAFQDSSFHTPSVPFIVPLSVIICPDRVGVFLDYEACTVSFFNITNHGFLIYKFSHCSFSQPVFPYLNPRKCGVPMTLCSPSS [human TRIM5α, 330-340 = GAPGTRFTFPSLT] | 0.181 ± 0.035
MASGILVNVKEEVTCPICLELLTQPLSLDCGHSFCQACLTANHKKSMLDKGESSCPVCRISYQPENIRPNRHVANIVEKLREVKLSPEGQKVDHCARHGEKLLLFCQEDGKVICWLCERSQEHRGHHTFLTEEVAREYQVKLQAALEMLRQKQQEAEELEADIREEKASWKTQIQYDKTNVLADFEQLRDILDWEESNELQNLEKEEEDILKSLTNSETEMVQQTQSLRELISDLEHRLQGSVMELLQGVDGVIKRTENVTLKKPETFPKNQRRVFRAPDLKGMLEVFRELTDVRRYWVDVTVAPNNISCAVISEDKRQVSSPKPQIIYQAPGTRFTFQSFTNFNYCTGILGSQSITSGKHYWEVDVSKKTAWILGVCAGFQPDAMCNIEKNENYQPKYGYWVIGLEEGVKCSAFQDSSFHTPSVPFIVPLSVIICPDRVGVFLDYEACTVSFFNITNHGFLIYKFSHCSFSQPVFPYLNPRKCGVPMTLCSPSS [human TRIM5α, 330-340 = QAPGTRFTFQSFT] | 4.41 ± 0.048
MASGILVNVKEEVTCPICLELLTQPLSLDCGHSFCQACLTANHKKSMLDKGESSCPVCRISYQPENIRPNRHVANIVEKLREVKLSPEGQKVDHCARHGEKLLLFCQEDGKVICWLCERSQEHRGHHTFLTEEVAREYQVKLQAALEMLRQKQQEAEELEADIREEKASWKTQIQYDKTNVLADFEQLRDILDWEESNELQNLEKEEEDILKSLTNSETEMVQQTQSLRELISDLEHRLQGSVMELLQGVDGVIKRTENVTLKKPETFPKNQRRVFRAPDLKGMLEVFRELTDVRRYWVDVTVAPNNISCAVISEDKRQVSSPKPQIIYGAPGTRYQSLTNFNYCTGILGSQSITSGKHYWEVDVSKKTAWILGVCAGFQPDAMCNIEKNENYQPKYGYWVIGLEEGVKCSAFQDSSFHTPSVPFIVPLSVIICPDRVGVFLDYEACTVSFFNITNHGFLIYKFSHCSFSQPVFPYLNPRKCGVPMTLCSPSS [human TRIM5α, 330-340 = GAPGTRYQSLT] | 0.00204 ± 0.00062
MASGILVNVKEEVTCPICLELLTQPLSLDCGHSFCQACLTANHKKSMLDKGESSCPVCRISYQPENIRPNRHVANIVEKLREVKLSPEGQKVDHCARHGEKLLLFCQEDGKVICWLCERSQEHRGHHTFLTEEVAREYQVKLQAALEMLRQKQQEAEELEADIREEKASWKTQIQYDKTNVLADFEQLRDILDWEESNELQNLEKEEEDILKSLTNSETEMVQQTQSLRELISDLEHRLQGSVMELLQGVDGVIKRTENVTLKKPETFPKNQRRVFRAPDLKGMLEVFRELTDVRRYWVDVTVAPNNISCAVISEDKRQVSSPKPQIIYQARGTLFPSLVNFNYCTGILGSQSITSGKHYWEVDVSKKTAWILGVCAGFQPDAMCNIEKNENYQPKYGYWVIGLEEGVKCSAFQDSSFHTPSVPFIVPLSVIICPDRVGVFLDYEACTVSFFNITNHGFLIYKFSHCSFSQPVFPYLNPRKCGVPMTLCSPSS [human TRIM5α, 330-340 = QARGTLFPSLV] | 0.00684 ± 0.0058

Same assay, conditions: library: insertions and deletions

Sequence | enrichment
MASGILVNVKEEVTCPICLELLTQPLSLDCGHSFCQACLTANHKKSMLDKGESSCPVCRISYQPENIRPNRHVANIVEKLREVKLSPEGQKVDHCARHGEKLLLFCQEDGKVICWLCERSQEHRGHHTFLTEEVAREYQVKLQAALEMLRQKQQEAEELEADIREEKASWKTQIQYDKTNVLADFEQLRDILDWEESNELQNLEKEEEDILKSLTNSETEMVQQTQSLRELISDLEHRLQGSVMELLQGVDGVIKRTENVTLKKPETFPKNQRRVFRAPDLKGMLEVFRELTDVRRYWVDVTVAPNNISCAVISEDKRQVSSPKPQIIYGQIIYGARGTRYQTFVNFNYCTGILGSQSITSGKHYWEVDVSKKTAWILGVCAGFQPDAMCNIEKNENYQPKYGYWVIGLEEGVKCSAFQDSSFHTPSVPFIVPLSVIICPDRVGVFLDYEACTVSFFNITNHGFLIYKFSHCSFSQPVFPYLNPRKCGVPMTLCSPSS [human TRIM5α, 5-codon duplication at 326] | 0.428 ± 0.23
MASGILVNVKEEVTCPICLELLTQPLSLDCGHSFCQACLTANHKKSMLDKGESSCPVCRISYQPENIRPNRHVANIVEKLREVKLSPEGQKVDHCARHGEKLLLFCQEDGKVICWLCERSQEHRGHHTFLTEEVAREYQVKLQAALEMLRQKQQEAEELEADIREEKASWKTQIQYDKTNVLADFEQLRDILDWEESNELQNLEKEEEDILKSLTNSETEMVQQTQSLRELISDLEHRLQGSVMELLQGVDGVIKRTENVTLKKPETFPKNQRRVFRAPDLKGMLEVFRELTDVRRYWVDVTVAPNNISCAVISEDKRQVSSPKPQIIYGARGTRYTRYQTFVNFNYCTGILGSQSITSGKHYWEVDVSKKTAWILGVCAGFQPDAMCNIEKNENYQPKYGYWVIGLEEGVKCSAFQDSSFHTPSVPFIVPLSVIICPDRVGVFLDYEACTVSFFNITNHGFLIYKFSHCSFSQPVFPYLNPRKCGVPMTLCSPSS [human TRIM5α, 3-codon duplication at 334] | 0.655 ± 0.63
MASGILVNVKEEVTCPICLELLTQPLSLDCGHSFCQACLTANHKKSMLDKGESSCPVCRISYQPENIRPNRHVANIVEKLREVKLSPEGQKVDHCARHGEKLLLFCQEDGKVICWLCERSQEHRGHHTFLTEEVAREYQVKLQAALEMLRQKQQEAEELEADIREEKASWKTQIQYDKTNVLADFEQLRDILDWEESNELQNLEKEEEDILKSLTNSETEMVQQTQSLRELISDLEHRLQGSVMELLQGVDGVIKRTENVTLKKPETFPKNQRRVFRAPDLKGMLEVFRELTDVRRYWVDVTVAPNNISCAVISEDKRQVSSPKPARGTRYQTFVNFNYCTGILGSQSITSGKHYWEVDVSKKTAWILGVCAGFQPDAMCNIEKNENYQPKYGYWVIGLEEGVKCSAFQDSSFHTPSVPFIVPLSVIICPDRVGVFLDYEACTVSFFNITNHGFLIYKFSHCSFSQPVFPYLNPRKCGVPMTLCSPSS [human TRIM5α, 5-codon deletion at 326] | 1.07 ± 0.19
MASGILVNVKEEVTCPICLELLTQPLSLDCGHSFCQACLTANHKKSMLDKGESSCPVCRISYQPENIRPNRHVANIVEKLREVKLSPEGQKVDHCARHGEKLLLFCQEDGKVICWLCERSQEHRGHHTFLTEEVAREYQVKLQAALEMLRQKQQEAEELEADIREEKASWKTQIQYDKTNVLADFEQLRDILDWEESNELQNLEKEEEDILKSLTNSETEMVQQTQSLRELISDLEHRLQGSVMELLQGVDGVIKRTENVTLKKPETFPKNQRRVFRAPDLKGMLEVFRELTDVRRYWVDVTVAPNNISCAVISEDKRQVSSPKPQIIYGARGTRYQTFVYCTGILGSQSITSGKHYWEVDVSKKTAWILGVCAGFQPDAMCNIEKNENYQPKYGYWVIGLEEGVKCSAFQDSSFHTPSVPFIVPLSVIICPDRVGVFLDYEACTVSFFNITNHGFLIYKFSHCSFSQPVFPYLNPRKCGVPMTLCSPSS [human TRIM5α, 3-codon deletion at 341] | 0.56 ± 0.56
MASGILVNVKEEVTCPICLELLTQPLSLDCGHSFCQACLTANHKKSMLDKGESSCPVCRISYQPENIRPNRHVANIVEKLREVKLSPEGQKVDHCARHGEKLLLFCQEDGKVICWLCERSQEHRGHHTFLTEEVAREYQVKLQAALEMLRQKQQEAEELEADIREEKASWKTQIQYDKTNVLADFEQLRDILDWEESNELQNLEKEEEDILKSLTNSETEMVQQTQSLRELISDLEHRLQGSVMELLQGVDGVIKRTENVTLKKPETFPKNQRRVFRAPDLKGMLEVFRELTDVRRYWVDVTVAPNNISCAVISEDKRQVSSPKPQIIYIIYGARGTRYQTFVNFNYCTGILGSQSITSGKHYWEVDVSKKTAWILGVCAGFQPDAMCNIEKNENYQPKYGYWVIGLEEGVKCSAFQDSSFHTPSVPFIVPLSVIICPDRVGVFLDYEACTVSFFNITNHGFLIYKFSHCSFSQPVFPYLNPRKCGVPMTLCSPSS [human TRIM5α, 3-codon duplication at 327] | 2.52 ± 0.82

± gives the standard deviation of the averaged measurements. Restriction of a single-cycle SIVsab GFP reporter by TRIM5α v1-loop variants in CRFK cells. Human variants: read share among cells still uninfected after two challenges over input, higher = gained restriction. Rhesus variants: share among infected cells over input, higher = lost restriction. Reporter dose not given per row. No active / inactive call per row; the paper calls a change when both replicates lie above its controls (mean + 2 SD of stop or wild-type variants, or the top frameshift score). Residues outside the varied loop are taken from Swiss-Prot. The paper reads the human single-substitution scores as noise; they and the rhesus combinations repeat poorly (rank correlation 0.3 to 0.4), indel scores repeat only for the top variants, rhesus substitutions well (0.9).
